# In ChEMBL document CHEMBL4888484, “Replenishing the malaria drug discovery pipeline: Screening and hit evaluation of the MMV Hit Generation Library 1 (HGL1) against asexual blood stage Plasmodium falciparum ,using a nano luciferase reporter read-out” (2022):
# The campaign covered roughly 150,000 compounds. About 540 (0.36%) showed an effect of 50% or more. This is one part of the list.
# System: Plasmodium falciparum
# Assay: Primary screen in NF54 nanoGlo assay, in single point, at 2uM, 72h; a lower Z score goes with more inhibition
# Type: functional, Erythrocyte
# Conditions: timepoint 72 hour
Compound,% Inhibition [%],Z score
CCOC(=O)c1cc2n(n1)C[C@@](C)(C(=O)NC1CCCCCC1)N(Cc1ccc(OCC)cc1)C2=O,17,-1.94
CC(C)[C@@H]1CC[C@@H](C)C[C@H]1OC(=O)N[C@H](C)c1ccccc1,-39,4.53
O=C(O)C[C@@H]1CCN(C(=O)C2CCCCC2)C[C@@H]1CCN1CCN(c2ccccc2)CC1,-2,0.36
C[C@@H]1C(=O)Nc2ccc(S(=O)(=O)Nc3cccc(C(=O)NC4CC4)c3)cc21,-12,1.44
O=C1CN(CC(=O)N[C@@H](Cc2ccccc2Cl)c2ccccc2)C(=O)N1,-3,0.34
COC(=O)c1nn(C)cc1-c1ccc(C(=O)N(C)Cc2c(C)noc2C)cc1,-5,0.98
CC(C)N1CCN(C(=O)Nc2ccc(-n3ncn(C)c3=O)cc2)CC1,-12,1.51
C=C[C@H](C)NC(=O)N(C)Cc1cc(F)c(F)c(F)c1,-9,0.89
CN1C[C@@H]2CCC[C@H]1CN(C(=O)CCCc1ccccc1)C2,-7,1.41
Cc1ccccc1-c1cnc(CN2CCC[C@@H]3C[C@@]32C(=O)O)o1,-5,1.16
Fc1cccc2c1OCC[C@@H]2NCc1ccncc1,-5,0.61
CCCN(Cc1cccn1C)C[C@H](O)COC(C)(C)C,-14,2.47
NC(=O)Cn1ccnc1C1CCN(S(=O)(=O)N2CCCCCC2)CC1,-8,0.87
O=C(CCn1cncn1)NC1CCCCC1Oc1ccccc1 (centres undefined),-5,0.72
Cc1nc(NCc2ccc3nsnc3c2)c2cccnc2n1,-11,1.11
CC(C)c1ncsc1C(=O)NCc1ccn(C)n1,-7,1.15
CC(C)(F)c1nc(-c2cscn2)no1,-3,0.29
O=C(CO[C@H]1CCCc2c[nH]nc21)NC(C1CC1)C1CC1,32,-4.57
Cc1nn(C)cc1CNc1ccc(-c2ccccc2)cn1,3,-0.4
CN(C)S(=O)(=O)N1CCC(CNC(=O)Nc2ccccc2)CC1,-6,0.68
CCc1nc(C)c(C(=O)N2CCCn3nc(-c4ccccc4)nc32)o1,-1,0.16

Compound,% Inhibition [%],Z score
Cc1nc(C)c(CC(=O)N[C@H]2CC(C)(C)Cc3c2cnn3-c2ccccc2C)s1,-5,1.05
Cc1ccc(CNC(=O)N2CCC(n3c(C)cnc3C3CC3)CC2)cc1,10,-1.3
Cn1cc(CN2CCC[C@@H]2Cn2cncn2)cn1,-11,1.15
COc1cccc([C@H]2C[C@H](NC(=O)N[C@H]3CCO[C@@H]3c3cnn(C(C)C)c3)C2)c1,10,-1.68
C[C@@](CO)(NCc1ccc(S(N)(=O)=O)o1)C1CCCCC1,16,-2.09
Clc1ccc(-c2nnc(-c3cccnc3NCCN3CCOCC3)o2)cc1,-17,2.69
O=C(Cn1ncn2nccc2c1=O)Nc1cc(Cl)cc(Cl)c1,-3,0.43
O=C(NCc1ccc(N2CCCC2=O)cc1)NCc1ccc(N2CCCC2=O)cc1,6,-1.08
CCc1cccc2c(CCNC(=O)NCc3cnn(C)c3)c[nH]c12,-8,1.35
Cc1ccc(-c2nc(=O)[nH]c3sc(N)nc23)cc1,-36,4.22
CC1CC(C)CC(NC(=O)NCc2ncnn2C)C1 (centres undefined),1,-0.09
CCc1ccccc1N(C)S(=O)(=O)c1cc(-c2nc(C)c(C)s2)sc1C,7,-0.9
Cc1nnc(N2CC[C@H](C(=O)NCc3ccccc3)C2)o1,-7,1.16
CN(C(=O)c1ccccn1)[C@H]1CCS(=O)(=O)C1,-15,2.85
COc1ccc(S(=O)(=O)c2csc3c2NC(=O)C[C@@H]3c2c(F)cccc2F)cc1,-9,0.93
c1cc(-c2nc3c(c(N4CCOCC4)n2)CCC3)ccn1,-11,1.73
Cc1ccnc(N2CCC[C@@]3(CCC(=O)N(Cc4cccnc4)C3)C2)c1,2,-0.24
Cn1nc(-c2ccccc2F)c2cc(C(=O)N3CCN(c4cccc(C(F)(F)F)c4)CC3)sc21,-12,1.52
CCOC[C@H]1CCCN1C(=O)Cn1cccc(OC)c1=O,-16,2.31
COc1ccc(-c2nnc(NC(=O)CS(=O)(=O)c3ccccc3)o2)cc1OC,-1,0.1
Cc1oc2ccn(C)c(=O)c2c1C(=O)NCc1ccc(F)cc1,-7,1.06
